Results from paper PMC11494340, “High-throughput screening for small-molecule stabilizers of misfolded glucocerebrosidase in Gaucher disease and Parkinson’s disease” (Proceedings of the National Academy of Sciences of the …, 2024).
Where “and” joins values, the source holds several entries; their conditions need not be identical. Equal values may be shown once. Where a name gives a salt, the structure may show the parent alone.

Target: T1, HiBiT-GCase-L444P (Homo sapiens, UniProt P04062, L483P)
T1 sequence (P04062 40-536 L483P): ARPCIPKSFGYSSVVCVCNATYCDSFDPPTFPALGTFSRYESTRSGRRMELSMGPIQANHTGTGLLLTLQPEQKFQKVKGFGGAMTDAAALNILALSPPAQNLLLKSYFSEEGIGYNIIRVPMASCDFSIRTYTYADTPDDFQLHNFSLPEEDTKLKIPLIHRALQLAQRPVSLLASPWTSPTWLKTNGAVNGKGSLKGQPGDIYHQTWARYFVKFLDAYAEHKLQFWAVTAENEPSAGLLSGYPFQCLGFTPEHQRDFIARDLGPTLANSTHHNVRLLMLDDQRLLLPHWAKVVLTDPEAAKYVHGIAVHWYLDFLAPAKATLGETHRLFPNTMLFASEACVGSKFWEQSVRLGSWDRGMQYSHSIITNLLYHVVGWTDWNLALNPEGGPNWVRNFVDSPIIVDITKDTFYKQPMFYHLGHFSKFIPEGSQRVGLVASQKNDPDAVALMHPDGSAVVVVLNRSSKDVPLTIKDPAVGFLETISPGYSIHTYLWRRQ
Set-up: AUC: unit not given beside the values
Conditions: follow-up screen, 24 h; for CC-v2: qHTS curve class; for Efficacy: relative to DMSO control

| SMILES | AC50 | AUC | CC-v2 | Efficacy |
| --- | --- | --- | --- | --- |
| Cc1ccc(NC(=O)CCCCCC(=O)Nc2ccccc2N)cc1 [NCGC00263602-04, TC-H 106] | 16.8 µM | 167.1 | 1.1 | 268 |
| Nc1ccccc1NC(=O)CCCCCCC(=O)Nc1ccccc1 [NCGC00263618-04, CAY10433] | 29.8 µM | 130.2 | 1.1 | 282 |
| Cc1ccccc1C#Cc1ccc(CCC(=O)O)cc1 [NCGC00344089-02, TUG 424] | 33.5 µM | 12.4 | 1.2 | 55 |
| COc1cc2c(cc1-c1c(C)noc1C)ncc1[nH]c(=O)n([C@H](C)c3ccccn3)c12 [NCGC00344588-08, I-BET151] | 0.7 µM | 49.7 | 1.4 | 44 |
| O=C(/C=C/c1ccc(CN(CCO)CCc2c[nH]c3ccccc23)cc1)NO [NCGC00345539-07, Dacinostat] | 0.168 µM | 1068.3 | 1.1 |  |
| O=C(CCCCCCNC(=O)c1cnc(N(c2ccccc2)c2ccccc2)nc1)NO [NCGC00345802-05, ACY-1215] | 9.4 µM | 330.3 | 2.1 | 352 |
| CC(C)(C)c1nc(-c2cccc(NS(=O)(=O)c3c(F)cccc3F)c2F)c(-c2ccnc(N)n2)s1 [NCGC00346716-06, Dabrafenib] | 13.3 µM | 41.2 | 1.1 |  |
| C=C(C)C1Cc2c(ccc3c2OCC(c2ccc(O)cc2O)C3)O1 (centres unmarked) [NCGC00347653-02] | 29.2 µM | 56.9 | 1.2 | 70 |
| C[C@]12CC[C@H](O)CC1=CC[C@@H]1C2CC[C@]2(C)[C@@H](C3=CC(=O)OC3)CC[C@]12O (some centres unmarked) [NCGC00347770-02] | 2.6 µM | 138.1 | 1.1 | 147 |
| CCOC(=O)Nc1cc(-c2ccc(C)c(NS(C)(=O)=O)c2)nn2c(C)nnc12 [NCGC00351471-11, Bromosporine] | 4.2 µM | 169.0 | 1.1 |  |
| Cc1sc2c(c1C)C(c1ccc(Cl)cc1)=N[C@@H](CC(=O)Nc1ccc(O)cc1)c1nnc(C)n1-2 [NCGC00356067-04, OTX015] | 1.7 µM | 165.2 | 1.1 |  |
| C=Cc1cc(O)cc2nc(-c3ccc(O)c(F)c3)oc12 [NCGC00370919-02, Prinaberel] | 29.8 µM | 4.3 | 1.2 |  |
| COc1ccc(CNC(=O)Nc2ncc([N+](=O)[O-])s2)cc1 [NCGC00371125-13, AR-A014418] | 47.3 µM | 123.3 | 1.1 | 230 |
| O=C(N[C@H](Cc1cscn1)C(=O)N[C@@H](CC1CCCCC1)[C@@H](O)[C@@H](O)C1CC1)c1nc2ccccc2[nH]1 [NCGC00378583-01, Ro 0437626] | 6 µM | 193.4 | 1.1 | 207 |
| COC(=O)N[C@@H](C)CNc1nccc(-c2cn(C(C)C)nc2-c2cc(Cl)cc(NS(C)(=O)=O)c2F)n1 [NCGC00378599-02, Encorafenib] | 42.1 µM | -31.7 | 1.2 |  |
| Cc1[nH]c(/C=C2\C(=O)Nc3ccc(F)cc32)c(C)c1C(=O)NCCN1CCCC1 [NCGC00378902-09, Toceranib] | 31.6 µM | 39.8 | 2.3 |  |
| Cc1cc(C)cc(C(=O)NOCCCCCC(=O)NO)c1 [NCGC00379210-03, LMK-235] | 0.473 µM | 739.7 | 1.1 | 333 |
| C[C@@H]1O[C@@H](OC2CCC3(C=O)C(CCC4C3CCC3(C)C(C5=CC(=O)OC5)C(O)CC43O)C2)[C@H](O)[C@H](O)[C@H]1O[C@@H]1O[C@H](CO)[C@@H](O)[C@H](O)[C@H]1O (some centres unmarked) [NCGC00380658-01] | 2.5 µM | 104.8 | 1.1 | 93 |
| C/C=C(\C)C(=O)OC1C(C)C2(O)C3C=C(C)C(=O)C3CC(CO)=CC2C2C(C)(C)C12OC(C)=O (centres unmarked) [NCGC00380717-01] | 0.146 µM | 104.6 | 1.2 | 76 |
| CC1CCC2C(=CCC(O)C2(C)C)C1(C)Cc1c(O)cc(CO)c(C=O)c1O (centres unmarked) [NCGC00380764-01] | 8.2 µM | 40.6 | 1.1 | 90 |
| COC1C(O)C(OC2CCC3(C)C(CCC45CCC6C7(COC(=O)C7)OC4(O)C6(C)CCC35)C2)OC(C)C1OC1OC(CO)C(OC2OC(CO)C(O)C(O)C2O)C(O)C1O (centres unmarked) [NCGC00380855-01] | 8 µM | 104.1 | 1.1 | 174 |
| COc1cc2c(cc1O)C(c1ccc(O)cc1)C(C)C(C)C2 (centres unmarked) [NCGC00380925-01] | 29.8 µM | 103.5 | 1.1 | 175 |
| CC(=O)C1=CCC2C3CC=C4CC(O)CC(O)C4(C)C3C(O)CC12C (centres unmarked) [NCGC00380953-01] | 29.2 µM | 62.8 | 1.1 | 244 |
| CO[C@H]1[C@@H](O)[C@H](O[C@H]2CC[C@@]3(C)C(CCC4C3CC[C@]35COC6(COC(=O)C6)C3CCC45O)C2)O[C@@H](C)[C@@H]1OC1OC(CO)C(OC2OC(CO)C(O)C(O)C2O)C(O)C1O (some centres unmarked) [NCGC00381292-01] | 4.5 µM | 238.6 | 2.1 | 306 |
| C[C@]12CC[C@H](O[C@@H]3O[C@H](CO)[C@@H](O)[C@H](O)[C@H]3O)CC1=CC[C@@H]1C2CC[C@]2(C)[C@@H](C3=CC(=O)OC3)CC[C@]12O (some centres unmarked) [NCGC00381297-01] | 4.4 µM | 126.4 | 1.1 | 183 |
| CC12CCC(OC3OC(CO)C(O)C(O)C3OC3OC(CO)C(O)C(O)C3O)CC1CCC1C2CCC2(C)/C(=C3/COC(=O)C3)CCC12O (centres unmarked) [NCGC00384525-01] | 4.4 µM | 248.3 | 1.1 | 212 |
| CC1(C)CCCC2(C)C1CC(=O)C13CC(CCC12)C(O)(CO)C3 (centres unmarked) [NCGC00384807-01] | 5.2 µM | 35.4 | 1.2 | 71 |

More lines, now with the values ahead:

| AC50 | AUC | CC-v2 | Efficacy | SMILES |
| --- | --- | --- | --- | --- |
| 1.1 µM | 270.1 | 1.1 |  | Nc1ccccc1NC(=O)c1ccc(CNc2nccc(-c3cccnc3)n2)cc1 [NCGC00263182-09, Mocetinostat] |
| 5.3 µM | 441.1 | 1.1 |  | Nc1cc(F)ccc1NC(=O)c1ccc(CNC(=O)/C=C/c2cccnc2)cc1 [NCGC00263598-11, Chidamide] |
| 9.4 µM | 306.8 | 1.1 |  | CC(=O)Nc1ccc(C(=O)Nc2ccccc2N)cc1 [NCGC00263639-09, Tacedinaline] |
| 53 µM and 33.5 µM | 56.3 and 40.8 | 2.1 and 1.1 | 277 and 169 | CN1CCc2c(n(Cc3ccc(C(=O)NO)cc3)c3ccccc23)C1 [NCGC00345786-02] |
| 16.8 µM | 45.7 | 2.1 |  | O=C(Nc1nc2cccc(-c3ccc(CN4CCS(=O)(=O)CC4)cc3)n2n1)C1CC1 [NCGC00345855-05, Filgotinib] |
| 0.335 µM | 725.5 | 1.1 |  | CN(C)Cc1c(C(=O)NCCOc2ccc(C(=O)NO)cc2)oc2ccccc12 [NCGC00346486-03, Abexinostat] |
| 0.0335 µM | 1450.8 | 1.1 |  | Cn1cc(CNCC2CCN(c3ncc(C(=O)NO)cn3)CC2)c2ccccc21 [NCGC00346487-04, Quisinostat] |
| 0.0106 µM | 832.4 | 1.3 |  | COc1ccc(-c2nc(N3CCOCC3)c3sc(CN(C)c4ncc(C(=O)NO)cn4)cc3n2)cn1 [NCGC00346692-08, CUDC-907] |
| 0.211 µM | 867.4 | 1.1 | 350 | CCN(CC)Cc1ccc2cc(COC(=O)Nc3ccc(C(=O)NO)cc3)ccc2c1.Cl.O [NCGC00346743-01, Givinostat hydrochloride] |
| 1.5 µM | 583.1 | 1.1 | 335 | O=C(NO)c1cnc(N2CCN(S(=O)(=O)c3ccc4ccccc4c3)CC2)nc1 [NCGC00351481-03, JNJ16241199] |
| 9.4 µM | 7.8 | 1.2 | 65 | O=C(NCCN1CCC(n2c(=O)[nH]c3ccccc32)CC1)c1cc2cc(F)ccc2[nH]1 [NCGC00370807-05, FIPI hydrochloride] |
| 10.6 µM | 31.2 | 1.2 | 47 | O=C(NC1CCC1)c1ccc(C#Cc2cccc(F)c2)nc1 [NCGC00379106-01, VU 0360172 hydrochloride] |
| 4.2 µM | 526.6 | 1.1 |  | CN(C)Cc1ccc(S(=O)(=O)n2ccc(/C=C/C(=O)NO)c2)cc1 [NCGC00381559-02, Resminostat] |
| 26.6 µM | 109.7 | 1.1 | 272 | O=C(NO)c1ccc(CC(=O)N(CCO)c2ccccc2)cc1 [NCGC00384200-02, HPOB] |
